Measured values taken from PubChem BioAssay AID686979 (National Center for Advancing Translational Sciences (NCATS), 2013).
Screen size: about 420,000 compounds; about 50,000 (12%) were called active. Inconclusive results, whose numbers are uncertain, are shown with a selection of clear calls. Calls come from the whole dose curve; as a rule, active = well fitted inhibition curve with a large enough effect; inconclusive = small, poorly fitted or top-dose-only effect; inactive = flat fitted curve, though single readings scatter. Potencies of inconclusive entries are left out as doubtful fits.

Assay: qHTS for Inhibitors of human tyrosyl-DNA phosphodiesterase 1 (TDP1): qHTS in cells in presence of CPT; note: nearly all actives have a fitted effect of over 55% in size
Details: chicken DT40 Tdp1-/-;hTDP1 cells + 20 nM CPT, ATP luminescence, 48 h; activity change, negative = growth inhibition: at 46.2 µM (top of the series) unless noted
Procedure, shortened: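 Chicken DT40 Tdp1-/- cells stably complemented with human TDP1 were seeded at 400 cells/well in medium containing 20 nM camptothecin, exposed to pin-transferred compounds, and grown at 37 °C for at least 48 hr. Viability was read as ATP luminescence.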
% is set by controls: 0 for no effect and ±100 for the full control effect; potency is the fitted concentration of half-maximal effect; tags give direction and shape of the fitted curve.

SMILES | Potency | activity change, negative = growth inhibition
CCOC(=O)C[C@H]1c2cc(F)ccc2S(=O)(=O)N1Cc1cc(OC)c(OC)c(OC)c1 | active: 10 µM | –
Cc1[nH]c(=O)[nH]c(=O)c1S(=O)(=O)Nc1ccc(F)c([N+](=O)[O-])c1 | – | inactive: -7.74%
Cc1nc(C)c(C(=O)N(c2ccc(C)c(C)c2)C(C(=O)NCc2ccco2)c2ccccc2)s1 (configuration not stated) | – | inactive: -22.4%
CCOC(=O)C1(C)CCCCCN1C(=O)c1ccc(OC)c(C(F)(F)F)c1 (configuration not stated) | active: 23.1 µM | –
O=C(Nc1ccc(Cl)cn1)c1cccc(OCc2ccccc2)c1 | inconclusive [inhibitor, single point] | –
O=C(CSc1nccn1Cc1ccccc1)NCc1ccc(F)cc1 | – | inconclusive: -31.7% [inhibitor]
CCCCSc1nc2c(c(=O)n1CC)SC(C)C2 (configuration not stated) | inconclusive [inhibitor, single point] | –
CCc1ccccc1N(CC)C(=O)c1cn(C)c(=O)c2cc(OC)c(OC)cc12 | – | inactive: -11.6%
Cc1cc(C)nc(NS(=O)(=O)c2ccc(NC(=O)COc3ccc(Cl)cc3C)cc2)n1 | inconclusive [inhibitor, partial curve] | –
CCOc1ccc(C(=O)Nc2cc(-c3nc4ccccc4o3)ccc2C)cc1Cl | – | inactive: -11.7%
CCOc1cc(C(=S)N2CCOCC2)cc(Br)c1OS(=O)(=O)c1ccccc1 | inconclusive [inhibitor, single point] | –
O=C(Nc1ccc(Cl)cc1)c1cccc(N2C(=O)C3C4CCC(C4)C3C2=O)c1 (configuration not stated) | inconclusive [inhibitor, single point] | –
CCCN(CCC)S(=O)(=O)c1ccc(N2CCCC2=O)c([N+](=O)[O-])c1 | inconclusive [inhibitor, single point] | –
Cc1ccc(N2N=C(C(=O)O)CCC2=O)cc1Cl | – | inactive: 3.44%
Cc1ccccc1C(=O)Nc1nc2n(n1)C(c1ccccc1)CC(=O)N2 (configuration not stated) | inconclusive [inhibitor, single point] | –
COc1cc(NC(=O)CSc2nnc(NC(C)C)s2)cc(OC)c1OC | inconclusive [inhibitor, single point] | –
O=C(CCCCCCC(=O)Nc1ccccc1)NO | active: 0.422 µM | –
COc1ccc(-n2nc3ccc(NC(=O)c4ccc(-c5cc(Cl)ccc5Cl)o4)cc3n2)cc1 | – | inactive: -18%
COc1ccc(CN(C)C(=O)c2sccc2-c2ccccc2)c(OC)c1 | inconclusive [inhibitor, single point] | –
COc1cccc(CC(=O)Nc2sc3c(c2C(N)=O)CCCC3)c1 | – | inactive: -25.3%
Cc1ccccc1CN(C)C(C)C(=O)Nc1ccccc1F (configuration not stated) | inconclusive [inhibitor, single point] | –
CCc1ccc2[nH]c(=O)c(CN(Cc3ccc4c(c3)OCO4)C(=O)c3ccco3)cc2c1 | active: 23.1 µM | –
Cn1c(=O)c2cc(NC(=O)NCCc3cccs3)ccc2n1Cc1ccccc1 | inconclusive [inhibitor, single point] | –
C=CCNc1nc(Nc2ccc(OC)cc2OC)nc(OCC)n1 | active: 16.4 µM | –

SMILES | Potency | activity change, negative = growth inhibition
CCOC(=O)c1[nH]cnc1C(=O)Nc1ccc([N+](=O)[O-])cc1 | inconclusive [inhibitor, single point] | –
CCc1ccc2c(-c3cccc(Cl)c3)nc(=O)n(CC)c2n1 | – | inactive: 14.1%
O=C(Cc1cccc2ccccc12)NN=Cc1ccc2c(c1)CCC2 | inconclusive [inhibitor, single point] | –
O=C(CNS(=O)(=O)c1ccc(Br)s1)NCC1COc2ccccc2O1 (configuration not stated) | inconclusive [inhibitor, single point] | –
COc1ccc(NC(=O)CSc2nnc(C)s2)cc1S(=O)(=O)N1CCOCC1 | – | inactive: -6.19%
COc1ccc(-n2ccnc(NCc3ccc(Cl)cc3)c2=O)cc1 | inconclusive [inhibitor, single point] | –
O=C1CCCC(=O)C1=C1SCCCS1 | inconclusive [inhibitor, single point] | –
COc1ccc(NC(=O)CCc2nnc3n(C)c(=O)c4sccc4n23)cc1 | inconclusive [inhibitor, single point] | –
CCCNC(=O)C1(C)CCN(C(=O)c2cccnc2Oc2ccccc2)C1 (configuration not stated) | – | inactive: -9.52%
CCn1c2ccc(C)cc2c2nnc(NN)nc21 | active: 18.4 µM | –
O=C(NCc1ccco1)c1cc2nc(-c3ccc4c(c3)OCO4)cc(C(F)(F)F)n2n1 | inconclusive [inhibitor, single point] | –
COc1ccc(-c2nc3ccccc3c(=O)n2NC(=S)N(C)C)cc1 | active: 11.6 µM | –
COc1ccc(S(=O)(=O)Nc2ccc(S(=O)(=O)Nc3cc(C)nc(C)n3)cc2)cc1OC | – | inactive: 11.6%
Clc1cccc(N2CCN(c3nc4ccccc4n4cnnc34)CC2)c1 | inconclusive [inhibitor, single point] | –
CCc1ccc(C(=O)CN2C(=O)NC3(CCCCCC3)C2=O)cc1 | inconclusive [inhibitor, single point] | –
COC(=O)c1sccc1-n1cc2c(c1-c1ccccc1)c(=O)n(C)c(=O)n2C | inconclusive [inhibitor, single point] | –
C/C(=N\NC(=O)c1c(-c2ccccc2Cl)noc1C)c1cccc(NC(=O)C(C)C)c1 | inconclusive [inhibitor, single point] | –
CCc1ccccc1NC(=O)CNC(=O)c1cc(C2CC2)nc2c1cnn2C(C)C | inconclusive [inhibitor, single point] | –
C=CCc1ccccc1OCCSc1nc(-c2ccc(C(C)(C)C)cc2)nc2cc(=O)[nH]n12 | active: 23.1 µM | –
Cc1cc(C)cc(NC(=O)CCC(=O)N2Cc3ccccc3Oc3ncccc32)c1 | inconclusive [inhibitor, single point] | –
c1ccc(-c2nc(-c3ccco3)n3ccccc23)cc1 | active: 10.3 µM | –
CC(=O)N(C(C)=O)N1C(=O)/C(=C/c2ccc(Cl)cc2)SC1=S | inconclusive [inhibitor, partial curve] | –
CCOc1cc(-c2nc3ccccc3s2)ccc1O | – | inactive: 8.82%
CCN(c1cc(C)cc(C)c1)S(=O)(=O)c1nnc(NC(=O)C2CCCCC2)s1 | active: 20.6 µM | –

SMILES | Potency | activity change, negative = growth inhibition
Cc1c(N=N/C(C(=O)Nc2ccccc2)=C(/O)c2ccccc2)c(=O)n(-c2ccccc2)n1C | inconclusive [inhibitor, single point] | –
CCCOc1ccccc1OCC(=O)Nc1cc(Cl)ccc1-n1cncn1 | inconclusive [inhibitor, partial curve] | –
Cc1cc(-c2n[nH]c(=S)n2/N=C/C(Br)=C/c2ccccc2)n[nH]1 | active: 1.64 µM | –
CCOC(=O)C1CCCN(CC(O)COCc2ccccc2OC)C1 (configuration not stated) | – | inactive: 0.754%
CC(=O)N1CC2(CC(c3ccccc3F)=NO2)CN1c1ccc(Cl)cc1 (configuration not stated) | inconclusive [inhibitor, single point] | –
COc1ccc(CC(=O)Nc2cccc(-c3csc(C)n3)c2)cc1 | inconclusive [inhibitor, single point] | –
Cc1cccc(N2CCN(CC(=O)N(C3CCCC3)C3CCS(=O)(=O)C3)CC2)c1C (configuration not stated) | inconclusive [inhibitor, single point] | –
COc1ccccc1C=NNC(=O)c1ccccc1OCCOc1ccccc1 | inconclusive [inhibitor, single point] | –
N#CCCN(Cc1cccnc1)S(=O)(=O)c1ccc(S(=O)(=O)NC2CCCCC2)cc1 | – | inactive: -23.1%
c1ccc2nc(-c3nc4ccccc4[nH]3)ccc2c1 | inconclusive [inhibitor, single point] | –
O=C(Nc1nc(-c2cccs2)cs1)C1CC(=O)N(c2ccc3c(c2)OCCO3)C1 (configuration not stated) | inconclusive [inhibitor, single point] | –
Cc1cc(C)c(NC(=O)C[C@H](CC(=O)O)c2cccc3ccccc23)c(C(=O)N2CCC3(CCCC3)CC2)c1 | inconclusive [inhibitor, single point] | –
Cc1c(Cl)ccc2sc(NC(=O)c3ccc(S(=O)(=O)N4CCCc5ccccc54)cc3)nc12 | inconclusive [inhibitor, single point] | –
COc1ccc(OC)c(/C=N/Nc2cc(C)nc(N3CCOCC3)n2)c1 | inconclusive [inhibitor, single point] | –
Cc1c(Cl)cccc1-c1ccc(CNc2ccc3[nH]c(=O)[nH]c3c2)o1 | active: 3.26 µM | –
CN(C)c1ccc(C(C(=O)NC2CCCCC2)N(Cc2ccco2)C(=O)c2snc(C(N)=O)c2N)cc1 (configuration not stated) | inconclusive [inhibitor, single point] | –
FC(F)Oc1cccc(NC(=S)N2CCN(c3ccccn3)CC2)c1 | – | inactive: -14.5%
Clc1ccc2nc(CSc3ccccc3)cn2c1 | – | inactive: -4.31%
COC(=O)c1sc(NC(=O)c2ccc(C)o2)nc1C | inconclusive [inhibitor, partial curve, poor fit] | –
COc1ccc(-c2csc(N(CCCN(C)C)C(=O)c3ccc(Br)cc3)n2)cc1 | active: 20.6 µM | –
CC(OC(=O)c1cccc(-n2cnnn2)c1)C(=O)Nc1cccc(Cl)c1 (configuration not stated) | inconclusive [inhibitor, single point] | –
COc1ccc(/C=C2\CCc3ccccc3C2=O)cc1O | active: 0.517 µM | –
COCC(=O)NCc1nc2ccccc2n1Cc1ccccc1F | – | inconclusive: -30.4% [inhibitor]
CC1CCN(S(=O)(=O)c2ccc3c(c2)oc(=O)n3CC(=O)NCc2ccc(F)cc2)CC1 | active: 11.6 µM | –
